Experimental findings from the supplement of paper PMC9446081 are described below.

The whole screen tested about 39,000 compounds, of which about 220 (0.56%) showed activity. This is one part of the list.
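Also: static incubation at 37 °C against the wild-type strain, values averaged over two biological replicates.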

The experiment relates to Escherichia coli K-12 BW25113. The experiment in a line: relative growth (OD600 normalised to plate interquartile mean) (fraction); higher = less growth inhibition, active = 0.2 or less. To be noted: 50 µM; LB; incubation time: overnight (16-24 h).
Regarding `CN1CCN(C(=O)[C@@H]2[C@@H](CO)[C@@H]3Cn4c(ccc(C5=CCCC5)c4=O)[C@H]2N3S(C)(=O)=O)CC1`, the relative growth was inactive: 0.98. In the case of `CC(=O)n1cc([C@@H]2C=C(C(=O)N3CCN(Cc4ccccc4)CC3)O[C@H](OCc3ccc(COC(=O)NCCCCCC(=O)NO)cc3)C2)c2ccccc21` it was inactive: 0.999; in that of `C[C@@H]1CCCCO[C@@H](CN(C)C(=O)Nc2ccc(F)cc2)[C@H](C)CN([C@@H](C)CO)C(=O)c2cc(NC(=O)c3ccncc3)ccc2O1`, inactive: 0.958; in that of `C[C@@H]1CN([C@@H](C)CO)C(=O)c2cccc(N(C)C)c2O[C@H]1CN(C)S(C)(=O)=O`, inactive: 0.987. For the compound `CNC(=O)c1c(C)noc1C`, the relative growth is inactive: 1.

Turning to `C[C@H](CO)N1C[C@H](C)[C@@H](CN(C)C(=O)Nc2ccc(C(F)(F)F)cc2)OCCCC[C@H](C)Oc2ccc(NC(=O)Cc3ccccc3)cc2C1=O`, the relative growth was inactive: 1.01. The same measure for `C[C@H](CO)N1C[C@H](C)[C@H](CN(C)S(=O)(=O)c2cccc(F)c2)Oc2ncc(C#CC3CCCC3)cc2C1=O`: inactive: 1.01. On to `Cc1noc(C)c1NC(=O)Nc1ccc2c(c1)CC(=O)N([C@H](C)CO)C[C@H](C)[C@H](CN(C)Cc1ccc(C(F)(F)F)cc1)O2`, for which the relative growth was inactive: 1.03.

Take `CCc1nc2ccc(C(=O)Nc3cccc(OCC(=O)N(C)C)c3)cn2c1N(C)CCN1CCOCC1`: the relative growth is inactive: 0.993.

`C[C@H](CO)N1C[C@H](C)[C@@H](CN(C)S(C)(=O)=O)Oc2c(NC(=O)Nc3ccc4c(c3)OCO4)cccc2C1=O`: the relative growth was inactive: 0.991.

Turning to `O=C(C[C@H]1C=C[C@H](NC(=O)CN2CCOCC2)[C@H](CO)O1)NCc1cccc(F)c1`, the relative growth is inactive: 1.02. With `C[C@H](CO)N1C[C@H](C)[C@@H](CN(C)Cc2ccc(-c3ccccc3)cc2)OCc2ccccc2-c2c(n(C)c3ccccc23)C1=O`, the relative growth was inactive: 0.988. For `C[C@@H]1CN([C@H](C)CO)C(=O)c2cc(C#Cc3ccccc3F)cnc2O[C@H]1CN(C)S(=O)(=O)c1ccccc1`, the relative growth was inactive: 1.01. As for `CC1=C(/C=C/C(C)=C/C=C/C(C)=C/C=C/C=C(C)/C=C/C=C(C)/C=C/C2=C(C)C(=O)C(O)CC2(C)C)C(C)(C)CC(O)C1=O` (centres undefined), the relative growth is inactive: 0.989.

As for `C[C@@H]1CN([C@@H](C)CO)C(=O)Cc2cc(NC(=O)CCCN(C)C)ccc2O[C@@H]1CN(C)S(=O)(=O)c1ccc(F)cc1`, the relative growth was inactive: 0.999. As to `C[C@@H]1CN([C@@H](C)CO)C(=O)c2cc(C#CC3CC3)cnc2O[C@@H]1CN(C)S(=O)(=O)c1cccc(F)c1`, the relative growth is inactive: 1.01.

Take `C[C@@H]1CN([C@H](C)CO)C(=O)c2cccc(NC(=O)CCCCCC(=O)Nc3ccccc3N)c2O[C@@H]1CN(C)S(=O)(=O)c1cn(C)cn1`: the relative growth is inactive: 1.03. Take `C[C@@H]1CN([C@@H](C)CO)C(=O)CCCn2nncc2CO[C@@H]1CN(C)C(=O)Nc1ccc2c(c1)OCCO2`: the relative growth is inactive: 0.997. As to `Cn1cnc(CCNC(=O)C[C@@H]2CC[C@@H]3[C@H](COC[C@@H](O)CN3C(=O)C3CC3)O2)c1`, the relative growth was inactive: 0.994. On to `Cc1ccc(S(=O)(=O)N(C)C[C@@H]2Oc3ccc(NC(=O)C4CC4)cc3C(=O)N([C@@H](C)CO)C[C@H]2C)cc1`, for which the relative growth is inactive: 1.02. With `CC1(C)CCC2(C(=O)O)CCC3(C)C(=CCC4C5(C)CCC(O)C(C)(CO)C5CCC43C)C2C1` (centres undefined), the relative growth was inactive: 0.737. Regarding `CO[C@H]1C[C@H](O[C@H]2[C@H](C)[C@@H](O[C@H]3O[C@H](C)C[C@H](N(C)C)[C@H]3O)[C@@H](C)C[C@]3(CO3)C(=O)[C@H](C)[C@@H](O)[C@@H](C)[C@@H](C)OC(=O)[C@@H]2C)O[C@@H](C)[C@@H]1O`, the relative growth was inactive: 0.954. Turning to `COc1ccc(NC(=O)Nc2ccc3c(c2)C(=O)N([C@@H](C)CO)C[C@H](C)[C@H](CN(C)C(=O)Cc2ccccc2)OCCCC[C@@H](C)O3)cc1`, the relative growth was inactive: 0.99. The same measure for `C[C@H](CO)N1C[C@H](C)[C@@H](CN(C)C(=O)Cc2ccccn2)Oc2cc(-c3cccc(C(=O)N(C)C)c3)ccc2S1(=O)=O`: inactive: 1.02; for `COc1ccc(S(=O)(=O)Nc2cccc3c2O[C@@H](CN(C)Cc2ccc(-c4ccccc4)cc2)[C@@H](C)CN([C@H](C)CO)C3=O)cc1`: inactive: 1.04; for `CC=Cc1ccc2n(c1=O)C[C@H]1[C@H](CO)[C@@H](C(=O)NCC3CC3)[C@@H]2N1S(=O)(=O)c1cn(C)cn1`: inactive: 1.01.

As to `C[N+](C)(C)CCOC(N)=O`, the relative growth was inactive: 1.15.

In the case of `COc1ccc(CNC(=O)C[C@@H]2CC[C@H]3[C@H](COc4ccc(NC(=O)C5CC5)cc4C(=O)N3C)O2)cc1`, the relative growth was inactive: 0.989.

As for `CC(=O)N1Cc2cc(C(=O)NCc3cccc(F)c3)nc(-c3cccc(C4=CCCCC4)c3)c2[C@@H]1CCO`, the relative growth was inactive: 0.94. As for `CO[C@H](CN(C)S(=O)(=O)c1ccc(C)cc1)[C@H](C)CN([C@H](C)CO)S(=O)(=O)c1cccc(Cl)c1`, the relative growth was inactive: 1.03. Consider `C[C@@H]1CN([C@@H](C)CO)C(=O)CCCn2cc(nn2)CO[C@@H]1CN(C)S(=O)(=O)c1ccc(-n2cccn2)cc1`, for which the relative growth was inactive: 1.01. As for `CN1CCN(C(=O)C[C@@H]2CC[C@H]3[C@@H](COC[C@H](O)CN3Cc3ccc(Oc4ccccc4)cc3)O2)CC1`, the relative growth was inactive: 0.984.

With `CCCC[C@@H](C#N)c1ccc(F)cn1`, the relative growth was inactive: 0.996. The same measure for `C[C@H]1CN([C@@H](C)CO)C(=O)Cc2cc(NC(=O)CCN3CCOCC3)ccc2O[C@H]1CN(C)S(C)(=O)=O`: inactive: 1.01; for `Cc1ccc(S(=O)(=O)N(C)C[C@H]2Oc3ccc(NC(=O)Cn4cnnn4)cc3CC(=O)N([C@H](C)CO)C[C@@H]2C)cc1`: inactive: 0.983; for `COc1ccc(NC(=O)Nc2ccc3c(c2)C(=O)N([C@H](C)CO)C[C@@H](C)[C@@H](CN(C)C(=O)Cc2ccccc2)OCCCC[C@H](C)O3)cc1`: inactive: 1.04.

`CC(C)N1CCN(c2ccc(OCC3COC(Cn4cncn4)(c4ccc(Cl)cc4Cl)O3)cc2)CC1` (centres undefined): the relative growth is inactive: 1.03. In the case of `C[C@H]1CN([C@@H](C)CO)C(=O)c2cccc(NS(=O)(=O)c3cn(C)cn3)c2O[C@H]1CN(C)Cc1ccccc1`, the relative growth was inactive: 1.02. For `COc1ccc(CN(C)C[C@H]2OCCCC[C@H](C)Oc3ccc(NS(=O)(=O)c4ccc(OC)cc4)cc3C(=O)N([C@@H](C)CO)C[C@@H]2C)cc1`, the relative growth is inactive: 1.02.

Consider `C[C@H](CO)N1C[C@H](C)[C@H](CN(C)C(=O)Nc2cccc3ccccc23)Oc2c(NC(=O)Nc3ccc(C(F)(F)F)cc3)cccc2C1=O`, for which the relative growth was inactive: 0.985. As to `CCCC#Cc1ccc2c(c1)O[C@H](CN(C)S(=O)(=O)c1cccc(OC)c1)[C@@H](C)CN([C@@H](C)CO)S2(=O)=O`, the relative growth was inactive: 1.05. Turning to `COc1cccc(-c2cnc3c(c2)C(=O)N([C@H](C)CO)C[C@H](C)[C@H](CN(C)C(=O)Nc2cccc4ccccc24)O3)c1`, the relative growth was inactive: 0.981.

Consider `C[C@@H]1CCCCO[C@@H](CN(C)Cc2ccc(C(=O)O)cc2)[C@@H](C)CN([C@H](C)CO)C(=O)c2cc(NC(=O)c3ccccc3)ccc2O1`, for which the relative growth was inactive: 0.894.

For the compound `Cc1noc(C)c1S(=O)(=O)N(C)C[C@@H]1Oc2ccc(NC(=O)Cc3ccccc3)cc2CC(=O)N([C@@H](C)CO)C[C@@H]1C`, the relative growth was inactive: 1.01. Consider `COc1ccc(-c2cnc3c(c2)C(=O)N([C@@H](C)CO)C[C@H](C)[C@@H](CN(C)S(=O)(=O)c2ccc(OC)cc2)O3)cc1`, for which the relative growth was inactive: 1.01. Take `C[C@@H]1CN([C@H](C)CO)C(=O)c2cccc(NC(=O)C3CCOCC3)c2O[C@@H]1CN(C)Cc1ccccc1`: the relative growth was inactive: 0.972. Regarding `C[C@H]1CN([C@@H](C)CO)C(=O)c2cccc(N(C)C)c2O[C@@H]1CN(C)S(C)(=O)=O`, the relative growth is inactive: 0.987. The same measure for `C[C@H]1CN([C@@H](C)CO)C(=O)c2cc(NC(=O)Nc3cccc4ccccc34)ccc2O[C@@H]1CN(C)Cc1ccc(C(=O)O)cc1`: inactive: 0.981. As for `C[C@@H]1CN([C@H](C)CO)S(=O)(=O)c2ccc(C#C[C@@H](C)O)cc2O[C@H]1CN(C)C(=O)Cc1ccccn1`, the relative growth is inactive: 0.988. The same measure for `C[C@@H]1CN([C@H](C)CO)C(=O)c2cc(NC(=O)Cc3cn(C)c4ccccc34)ccc2O[C@@H]1CN(C)Cc1ccc(C(=O)Nc2ccccc2N)cc1`: inactive: 0.996; for `CO[C@H]1CN(C)C(=O)c2ccc(NC(=O)C3CC3)cc2OC[C@@H](C)N(C(=O)CN2CCOCC2)C[C@H]1C`: inactive: 1.04. `O=C([O-])CCC(=O)OCC(NC(=O)C(Cl)Cl)C(O)c1ccc([N+](=O)[O-])cc1.[Na+]` (centres undefined): the relative growth is active: 0.0517. As for `C[C@@H]1CN([C@@H](C)CO)S(=O)(=O)c2ccc(C#CC(C)(C)O)cc2O[C@H]1CN(C)C(=O)CN(C)C`, the relative growth is inactive: 0.994.

On to `C[C@@H]1CN([C@@H](C)CO)S(=O)(=O)c2ccc(C#Cc3ccc(F)cc3)cc2O[C@H]1CN(C)C(=O)CN(C)C`, for which the relative growth was inactive: 0.976. On to `Cc1noc(C)c1NC(=O)Nc1ccc2c(c1)C(=O)N([C@H](C)CO)C[C@@H](C)[C@H](CN(C)Cc1ccc(Oc3ccccc3)cc1)O2`, for which the relative growth is inactive: 0.976. With `CCC1=NCCO1`, the relative growth is inactive: 0.993. Consider `COc1ccc(NC(=O)Nc2ccc3c(c2)C(=O)N([C@@H](C)CO)C[C@@H](C)[C@H](CN(C)S(=O)(=O)c2cn(C)cn2)O3)cc1`, for which the relative growth is inactive: 0.988. With `COc1ccc(S(=O)(=O)N(C)C[C@H]2Oc3ccc(NC(=O)CCCN(C)C)cc3CC(=O)N([C@@H](C)CO)C[C@@H]2C)cc1`, the relative growth is inactive: 1.02. The same measure for `Cc1noc(C)c1S(=O)(=O)Nc1ccc2c(c1)C(=O)N([C@@H](C)CO)C[C@H](C)[C@@H](CN(C)C(=O)Nc1ccccc1)OCCCC[C@H](C)O2`: inactive: 0.985.
